Source: US20240279281A1, “Peptide Inhibitors of Interleukin-23 Receptor” (Janssen Pharmaceutica NV, priority 2023, published 2024)
At least one structure is not confirmed: it was looked up by name or label, or the drawing left a doubt. Starred links: 1 amine or outer side, 2 acyl side, 3 side chain; linkers in the order of their positions; H or OH if unused. Positions of bridges follow the written chain, without caps; N, C: chain ends. Non-standard residues stand in square brackets, D forms with d. Residues, ends and D or L forms follow the SMILES beside them. Groups on a side chain read outwards from the residue. *: point of attachment. X4 = O=C([C@H](Cc1ccc2cc(-c3ccc(N4CCOCC4)cc3)ccc2c1)N[*:1])[*:2]; Me3N+(CH2)2O(CH2)2O(CH2)2CO = C[N+](C)(C)CCOCCOCCC(=O)*; X2 = O=C([C@H](Cc1ccc2cc(Br)ccc2c1)N[*:1])[*:2]; 2Nal(6-OH) = N[C@@H](Cc1ccc2cc(O)ccc2c1)C(=O)O; Trp(7-Me) = Cc1cccc2c(C[C@H](N)C(=O)O)c[nH]c12; AEF = NCCOc1ccc(C[C@H](N)C(=O)O)cc1; X20 = C[N+](C)(C)C[C@@H](CC(=O)O)N*; 3Pal = N[C@@H](Cc1cccnc1)C(=O)O; Lys(Me) = CNCCCC[C@H](N)C(=O)O; Pen = CC(C)(S)[C@H](N)C(=O)O; Suc = O=C(CCC(=O)[*:2])[*:1]; Thp = NC1(C(=O)O)CCOCC1; Sar = CNCC(=O)O

Columns and labels:
[1] = biological target: T1, IL-23R (Homo sapiens, UniProt Q5VWK5); experiment: IL23R Reporter Assay; type: cell-based; settings: HEK293 cells containing IL-23R, IL-12Rβ1 and STAT-inducible luciferase reporter, 10 ng/mL IL-23, 5 h
T1 construct: host or cells: HEK293
T1 sequence (Q5VWK5 24-629): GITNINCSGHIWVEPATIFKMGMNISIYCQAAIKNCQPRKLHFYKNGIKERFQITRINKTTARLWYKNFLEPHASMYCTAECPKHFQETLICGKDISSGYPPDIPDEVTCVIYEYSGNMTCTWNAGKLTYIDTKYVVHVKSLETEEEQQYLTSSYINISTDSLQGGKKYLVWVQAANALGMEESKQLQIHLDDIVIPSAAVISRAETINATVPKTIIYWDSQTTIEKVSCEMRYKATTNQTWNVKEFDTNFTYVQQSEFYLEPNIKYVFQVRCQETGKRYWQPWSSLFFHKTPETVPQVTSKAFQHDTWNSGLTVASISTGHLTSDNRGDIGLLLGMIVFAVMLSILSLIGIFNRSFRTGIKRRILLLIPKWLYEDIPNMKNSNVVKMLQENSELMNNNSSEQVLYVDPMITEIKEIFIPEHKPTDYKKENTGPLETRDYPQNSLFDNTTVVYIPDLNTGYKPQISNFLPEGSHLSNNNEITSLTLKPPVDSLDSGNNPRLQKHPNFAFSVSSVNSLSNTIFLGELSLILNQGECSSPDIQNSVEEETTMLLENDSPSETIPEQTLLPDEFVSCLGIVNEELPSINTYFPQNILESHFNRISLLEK
Method: Compounds were serially diluted in 100% (v/v) DMSO) and plated using an Echo acoustic dispenser (Labcyte) into 1536-well non-treated black assay plates (Corning #9146). […] After 5 h at 37° C., 5% CO2, 95% relative humidity, cells were placed at 20° C. and treated with BioGlo reagent (Promega) according to the Manufacturer's instructions. Luminescence was measured on a Pherastar FSX (BMG LabTech).

[2] = biological target: T2, IL-23-stimulated phosphorylated STAT3 in peripheral blood mononuclear cells (PBMCs) (Homo sapiens, UniProt Q5VWK5); experiment: PBMC pSTAT3 Assay; type: cell-based; settings: PBMCs from healthy donors, IL-23 5 ng/mL, 30 minutes
T2 sequence (Q5VWK5 24-629): T1 sequence (Q5VWK5 24-629)
Method: Cryopreserved peripheral blood mononuclear cells (PBMCs) from healthy donors were thawed and washed twice in ImmunoCult-XF T cell expansion medium (XF-TCEM) supplemented with CTL anti-aggregate wash. The cells were counted, resuspended at 2-6×10^5 cells per mL XF-TCEM supplemented with penicillin/streptomycin and 100 ng/mL IL-1β (BioLegend, 579404), and cultured in tissue culture flasks coated with anti-CD3 (eBioscience, 16-0037-85 or BD Pharmingen, 555329) at 37° C. in 5% CO2. On day 4 of culture, PBMCs were collected, washed twice in RPMI-1640 supplemented with 0.1% BSA (RPMI-BSA), and incubated in RPMI-BSA in upright tissue culture flasks for ˜4 hours at 37° C. in 5% CO2. Following this ‘starvation,’ a total of 6×10^4 cells in 30 μL RPMI-BSA was transferred into each well of a 384-well plate pre-spotted with peptide or DMSO. The cells were incubated for 30 minutes prior to the addition of IL-23 at a final concentration of 5 ng/mL. The cells were stimulated with cytokine for 30 minutes at 37° C. in 5% CO2, transferred onto ice for 10 minutes, and lysed. Cell lysates were stored at −80° C. until phosphorylated STAT3 was measured using the phospho-STAT panel kit (Meso Scale Discovery, K15202D).

## Cc1cccc2c(C[C@@H]3NC(=O)[C@H]([C@@H](C)O)NC(=O)[C@H](CC(N)=O)NC(=O)[C@@H](NC(=O)CCOCCOCC[N+](C)(C)C)C(C)(C)SSC(C)(C)[C@@H](C(=O)N[C@@H](Cc4ccc(OCCN)cc4)C(=O)N[C@@H](Cc4ccc5cc(O)ccc5c4)C(=O)NC4(C(=O)N[C@@H](CCCCN(C)C(=O)CCOCCOCC[N+](C)(C)C)C(=O)N[C@@H](CC(N)=O)C(=O)N[C@@H](Cc5cccnc5)C(=O)N(C)CC(N)=O)CCOCC4)NC(=O)[C@H](CCCCN(C)C(=O)CCOCCOCC[N+](C)(C)C)NC3=O)c[nH]c12 [SEQ ID NO: 328, cPEG3aCO-Pen(3)-N-T-7MeW-K(NMecPEG3a)-Pen(3)-AEF-6OH2Nal-THP-K(NMecPEG3a)-N-3Pya-Sar-CONH2] ({Me3N+(CH2)2O(CH2)2O(CH2)2CO}-[Pen]NT[Trp(7-Me)][Lys(Me)](Me3N+(CH2)2O(CH2)2O(CH2)2CO)[Pen][AEF][2Nal(6-OH)][Thp][Lys(Me)](Me3N+(CH2)2O(CH2)2O(CH2)2CO)N[3Pal][Sar]-NH2; disulfide 1-6)
[1]
  IC50: < 10 nM
[2]
  IC50: > 1 nM

## CC(=O)NCCCC[C@@H]1NC(=O)[C@H](Cc2c[nH]c3c(C)cccc23)NC(=O)[C@H]([C@@H](C)O)NC(=O)[C@H](CC(N)=O)NC(=O)[C@@H](NC(=O)[C@@H](CCCCNC(=O)CCC(=O)N[C@H](CC(=O)O)C[N+](C)(C)C)NC(C)=O)C(C)(C)SSC(C)(C)[C@@H](C(=O)N[C@@H](Cc2ccc(OCCN)cc2)C(=O)N[C@@H](Cc2ccc3cc(O)ccc3c2)C(=O)NC2(C(=O)N[C@@H](CCC(=O)O)C(=O)N[C@@H](CC(N)=O)C(=O)N[C@@H](Cc3cccnc3)C(=O)N(C)CC(N)=O)CCOCC2)NC1=O [SEQ ID NO: 349, MeCO-k(d)-Pen(3)-N-T-7MeW-K(Ac)-Pen(3)-AEF-6OH2Nal-THP-E-N-3Pya-Sar-CONH2] (Ac-[dK]([Suc-X20])[Pen]NT[Trp(7-Me)]K(Ac)[Pen][AEF][2Nal(6-OH)][Thp]EN[3Pal][Sar]-NH2; disulfide 2-7)
[1]
  IC50: < 10 nM
[2]
  IC50: < 0.01 nM

## CC(=O)NCCCC[C@@H]1NC(=O)[C@H](Cc2c[nH]c3c(C)cccc23)NC(=O)[C@H]([C@@H](C)O)NC(=O)[C@H](CC(N)=O)NC(=O)[C@@H](NC(=O)[C@@H](CCCNC(=N)N)NC(C)=O)C(C)(C)SSC(C)(C)[C@@H](C(=O)N[C@@H](Cc2ccc(OCCN)cc2)C(=O)N[C@@H](Cc2ccc3cc(-c4ccc(N5CCOCC5)cc4)ccc3c2)C(=O)NC2(C(=O)N[C@@H](CCC(=O)O)C(=O)N[C@@H](CC(N)=O)C(=O)NC3(C(N)=O)CCOCC3)CCOCC2)NC1=O [SEQ ID NO: 432, MeCO-r-Pen(3)-N-T-7MeW-K(Ac)-Pen(3)-AEF-2Nal6(Ph4(NMorph))-THP-E-N-THP-CONH2] (Ac-[dR][Pen]NT[Trp(7-Me)]K(Ac)[Pen][AEF][X4][Thp]EN[Thp]-NH2; disulfide 2-7)
[1]
  IC50: < 10 nM
[2]
  IC50: < 0.01 nM

## CC(=O)NCCCC[C@@H]1NC(=O)[C@H](Cc2c[nH]c3c(C)cccc23)NC(=O)[C@H]([C@@H](C)O)NC(=O)[C@H](CC(N)=O)NC(=O)[C@@H](NC(=O)[C@@H](CCCNC(=N)N)NC(C)=O)C(C)(C)SSC(C)(C)[C@@H](C(=O)N[C@@H](Cc2ccc(OCCN)cc2)C(=O)N[C@@H](Cc2ccc3cc(Br)ccc3c2)C(=O)NC2(C(=O)N[C@@H](CCC(=O)O)C(=O)N[C@@H](CC(N)=O)C(=O)NC3(C(N)=O)CCOCC3)CCOCC2)NC1=O [SEQ ID NO: 444, MeCO-r-Pen(3)-N-T-7MeW-K(Ac)-Pen(3)-AEF-6Br2Nal-THP-E-N-THP-CONH2] (Ac-[dR][Pen]NT[Trp(7-Me)]K(Ac)[Pen][AEF][X2][Thp]EN[Thp]-NH2; disulfide 2-7)
[1]
  IC50: > 100 nM
[1]; listed as 17
  IC50: < 10 nM
[2]
  IC50: > 1 nM
[2]; listed as 17
  IC50: < 0.01 nM
